Sequences and labels used below:
B1: LINE1-mini (parent)
chain: GGCAGAGCUCAACACAGCGUGGCAAAGUGGCUGUGGCUAGACUGCC

Read counts are not given, so values of variants with three or more changes are uncertain.

This data set covers variants of B1. The experiment in a line: self-cleavage, relative activity (ratio to wild type); higher = more cleavage; in vitro, sequencing; the parent is a self-cleaving ribozyme.
As for GGCAGAGCUCAACACUUCGUGGCAAAGUGGCUGUGGCUAGACUUCC, the self-cleavage worked out at 0.01.
Then GGCAAAGGUCAACACAGCGUGGCACAUUGGGUGUGGCUAGACUGCC, with 0.07; and GGCUGAGCUCAACACAGCGUGGCAAACAGGAUGUGGAUAGACUGCC, with 0.02; and GGCAGACCUCAACACAGCGUGGCACAGUGGCUGUGGCAAGACUGCC, with 0.
Turning to GGCAGAGCUCAACACAGCGUGGCAGUGUGGCUGUGGAUAGACUGCC, the self-cleavage stood at 0.14.
As to GGCAGUGCUCAACACAGUGUGGCAAAGUGGCUGAGGCUAGACUGCC, the self-cleavage was 0.05.
Regarding GGCAGAGCUCAACACACCGUGGUAAAGUGGCUGAGGCUAGACUGCC, the self-cleavage amounted to 0.03.
Then GGCAGAGCCCAACACAGCGCGGCAAAGUCGCUGUGGCUAGACUGCA, with 0.02; and GGCAGAGCUUAACACUGCGUGGCAAAGUGUCUGUUGCUAGACUGCC, with 0.02; and AGGAGAGCUCAACACAGCGUGGCAAAGUGGCUGUCGCUAUACUGCC, with 0.16.
As to GGCAGAGCUCAACACAGCGUGGGAACGUGGCUGUGGCUAGACUGCA, the self-cleavage came to 0.63.
Then GGCAUAGCUCAACACAGCUUUGCAAAGUGGCUGUGGCUAGACUGCC, with 0.05.
UGCAGAGCUCACCACAGCGUGGCAAAGUAGCUUGGGCUAGACUACC: the self-cleavage stood at 0.01.
In the case of GGCAGAGCUCAACACAGCGAGGCAAUGUGGCUGUGGCAAGACUGCC, the self-cleavage was found to be 0.13.
Then GGCAGAGCUAAACACAGCGUGGCAAUGUGGCUGAGGCUAGACUGCC, with 0.1; and UGCAGAGCUCAACACAGCGUGUCAAUGUGGCUGUGGCUAGACUGCC, with 0.43; and GGCAGAGCUCAACACAGCGAGGCAAAGUGGCUAAGGCUAGACUGCC, with 0.
For UGCAGAGCUCAACGCAGCGUGGCAAGGUGACUGUGGCUAGACUGCC, the self-cleavage is 0.04.
Then GUCAGAGCUCAACCCGGCUUAGAAAAGGGGCUGUGGCUAGACUGCC, with 0.02; and GGCAGAGCUCCUCACAGCGUGGCCAAGUGGCUGUGGCUAGACUGCC, with 0.02; and GGCAGAGCUCAACAGAGCGAGGCAAGGUGGUUGUGGCGAGACCGCC, with 0.
As for GGCAGAACUCAACACAGCGUGGCAAAGUGGCGGUGGCUAGACUGGC, the self-cleavage came to 0.07.
For the variant GGCAGAGCUCAAUACAGCGUGGCAAAGUGGCUGUGGCUAGAAUUCC, the self-cleavage came to 0.02.
Then GGCAGAGCUCAACACAGCGUGUCAAAGUGGCUCUGGCGAUACUGCC, with 0.03.
Then GGCAGAUCUCAACACAGGGUGGCAAAGGGGCUGUUGCUAGGUUGUC, with 0.03.
On to GGCAGAGCACAACACAGCGCGGCAAAGCUGCUGUGGCUAGACUGCC, for which the self-cleavage was found to be 0.06.
On to CGCAGAGCUCAACACAGCGUGGCAAGGGGGCUAUGGCUAGACUGCC, for which the self-cleavage was found to be 0.03.
With CGCAGAGCUCAACUCAGCGUGGCAAAGUGGCUGUGGCUAGACUGAC, the self-cleavage is 0.01.
Take AGCAGAGCUCAACAUAGCGUGGCAAAGUGGCUGUGGCUCGACUGCA: the self-cleavage was determined as 0.09.
For GGCAUAGCUCAACACAGCGUGGCAAAUUGCCUGUGGCUGGACUGCC, the self-cleavage came to 0.06.
In the case of UGCAGAGCUCAGCACAGCGUGGGAAAGUGGCUGUGGCUAGACUGCC, the self-cleavage is 0.03.
On to GGCAGAGCUCGACACAGCGAGGCAACGUGGCUGUGGCUAGACUGCC, for which the self-cleavage came to 0.02.
For GGCAGAGCUCAAAACAGCGUGGCCAAGUGGCUGUGGCUAUACUGCC the value was 0; for GGCAGAGCUCAACACAGCGUGACAAAGAGGGUGUAGCUAGACUGCC, 0.06; for GGGUCAGCUCAACACAGCGUGGCAAAGUGGCUGUGGCUAGACUGCC, 0.49.
In the case of GGCUCAGCUCAACACAGCCUGGCAAAGUGGCUGUGGCUAGACUGCC, the self-cleavage was determined as 0.01.
Regarding GGAAUAGCUCAACACAGCGUGGUAAAGUGGCUGUGGCUAGACUGCC, the self-cleavage came out at 0.09.
For GGCAAAGCUCAACACAGCGUGGCAAAGUAGCUGUGUCUAGACUGCC the value was 0.06; for GGCAGAACUCAACACAGUGUGGCAAUGUGGCUGUUGCUAGACUGCC, 0.04; for GGCAGAGCUCAACACAGCGUAGCAAAGUGGCUGUUGUUAGACUGCC, 0.07.
With GGAAGACCUGAACACAGUGUGGCAAAGUGGCUGUGGCUAAACUGCC, the self-cleavage worked out at 0.02.
Regarding GGCAGAGCUCAACACAGCGUGGCAAUGUGGUUCAGGCUAGACUGCC, the self-cleavage came out at 0.01.
Consider CGCAGAGCUCAACACAGAGUGGCCAAGUGGCUGUACCUAGACUGCC, for which the self-cleavage came to 0.
For GGCAGAGCUCAACACAGCGUGGCAAAGUCGUUGUGGCUAGACUGCA the value was 0.33.
For GGCAGAGCUCAACAGAGCGUGGCAAAGUGGCUGGGACUAGACUGCC the value was 0.01; for GGCAGCGCUAAACACAGCGUGUCAAAGUGGCUGUGGCUAGACUUCC, 0.03; for CGCAGAGCGCAACACAGCGUGGCAAAGUGGCUGUGGCUAUACUGCC, 0.
Turning to GGCAGAGCUCAACACCGCGUGGCAAAGUGGCUGAGGUUAGACUGCG, the self-cleavage was 0.07.
Turning to GGUAGAUCUCAACCCAGCGUGGCAAAGUGGCUGUGGAUAGAAAGCC, the self-cleavage stood at 0.02.
Consider GUCAGAGCUCAACACAGCGUGGGAAAGUGUCUCUGGCUAGACUGCC, for which the self-cleavage came out at 0.04.
For GGCAGAGCUAAACCAAGCGUGGCAAAGUGGCUGUGGCUAGACUGCC the value was 0.04; for GGCAGAGCUCAACACAGCUUCGCAAAGUGGCUGUGGCUAGACUGGC, 1.64.
As to GGCAGAGCUAAACACAGCGUGGCAAAGUGGCUGGGGCUAAACUGCC, the self-cleavage came out at 0.03.
For CGAAGAGCUCAACCCAGCGUGGCAAAGUGGCUGUGGCUAGACUGCC the value was 0.16; for GCCAGAGCUCAACAGAACGUGGCAAUGUGGCUGUGGCUAGACUGCC, 0.08.
For GGCAGAGCUAAACACAGCGUGGCAAUGUGGCUGUGGCUAGAUUGCC the value was 0.03.
